These results are taken from the supplement of paper PMC12355420.

Counter-ions that a name gives are not always drawn. The list shows a part of the results. Cut-off read from the data, not from the text of the source: active = 0.5 or less and inactive = the rest. Single values are uncertain, as repeats are few or missing.

For the first assay, the system named is HeLa VPS33A reporter cells. Description: relative cell viability (CellMask signal) vs DMSO (fraction of DMSO); higher = less cytotoxic. The following applies: 50 µM; 24 h.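 Note: primary screen of an FDA-approved drug library in HeLa reporter cells in 96-well format, CellMask signal normalized to DMSO-treated wells set as 1, under 0.5 deemed highly cytotoxic.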
`Nc1[nH]cnc2ncnc1-2` [Adenine] came in with a relative cell viability of 0.863.
Still for that read-out and setting: next, `Nc1ccc(S(=O)(=O)Nc2nccs2)cc1` [Sulfathiazole]: 1.14; `OC[C@H]1O[C@@H](OCCc2ccc(O)cc2)[C@H](O)[C@@H](O)[C@@H]1O` [Salidroside]: 1.06; `Cc1nc(=O)c2cc(CN(C)c3ccc(C(=O)N[C@@H](CCC(=O)O)C(=O)O)s3)ccc2[nH]1` [Raltitrexed]: 1.12.
On the same count and under the same terms, next, `CN1CCN2c3ncccc3Cc3ccccc3C2C1` (stereo not drawn) [Mirtazapine]: 0.978; `CC1(C)S[C@@H]2[C@H](NC(=O)[C@H](NC(=O)N3CCN(S(C)(=O)=O)C3=O)c3ccccc3)C(=O)N2[C@H]1C(=O)O` [Mezlocillin Sodium]: 0.916; `Cc1nnc(NS(=O)(=O)c2ccc(N)cc2)s1` [Sulfamethizole]: 1.17.
On the same count and under the same terms, next, `CC(=O)OCC(=O)NCCCOc1cccc(CN2CCCCC2)c1` [Roxatidine Acetate HCl]: 1.04; `Cc1cn([C@H]2C=C[C@@H](CO)O2)c(=O)[nH]c1=O` [Stavudine (d4T)]: 1.02; `COc1ccc(C(Cl)=C(c2ccc(OC)cc2)c2ccc(OC)cc2)cc1` [Chlorotrianisene]: 1.01.
The compound `CCCCNc1ccc(C(=O)OCCN(C)C)cc1` [Tetracaine HCl] gave a relative cell viability of 1.23.
As to `Cc1cc2c(s1)Nc1ccccc1N=C2N1CCN(C)CC1` [Olanzapine], the relative cell viability was 1.01.
On the same count and under the same terms, next, `C[C@@H]1O[C@@H](O[C@@H]2[C@@H](O)[C@H](OCCc3ccc(O)c(O)c3)O[C@H](CO[C@@H]3O[C@H](CO)[C@@H](O)[C@H](O)[C@H]3O)[C@H]2OC(=O)/C=C/c2ccc(O)c(O)c2)[C@H](O)[C@H](O)[C@H]1O` [Echinacoside]: 0.965.
For the compound `C1N2CN3CN1CN(C2)C3` [Methenamine], the relative cell viability was 0.993.
Same read-out and setting: next, `CC(C)(C)c1ccc(C(=O)CCCN2CCC(OC(c3ccccc3)c3ccccc3)CC2)cc1` [Ebastine]: 1.12; `O=C(O)/C=C/c1ccc(Cn2ccnc2)cc1` [Ozagrel]: 1.03.
On the same count and under the same terms, next, `C[N+](C)(C)CCOP(=O)(O)OP(=O)([O-])OC[C@H]1O[C@@H](n2ccc(N)nc2=O)[C@H](O)[C@@H]1O` [Citicoline (sodium salt)]: 0.997.
The same measure, in the same setting: next, `NC[C@H]1CC[C@H](C(=O)O)CC1` [Tranexamic Acid]: 1.08; `COc1ccc2cccc(CCNC(C)=O)c2c1` [Agomelatine]: 1.05.
`CC(=O)CCCCn1c(=O)c2c(ncn2C)n(C)c1=O` [Pentoxifylline] had a relative cell viability of 1.
On the same count and under the same terms, next, `O=C([O-])[O-].[Li+].[Li+]` [Lithium carbonate]: 1.02; `N#C/C(=C1/SC[C@@H](c2ccc(Cl)cc2Cl)S1)n1ccnc1` [Luliconazole]: 1.1; `COc1cc([C@@H]2c3cc4c(cc3[C@@H](O[C@@H]3O[C@@H]5CO[C@@H](c6cccs6)O[C@H]5[C@H](O)[C@H]3O)[C@H]3COC(=O)[C@H]23)OCO4)cc(OC)c1O` [Teniposide]: 0.505.
On the same count and under the same terms, next, `O=c1c(-n2ccnn2)c[nH]n1-c1cc(N2CCOCC2)ncn1` [Molidustat (BAY85-3934)]: 1.17; `Nc1nc2ccc(OC(F)(F)F)cc2s1` [Riluzole (hydrochloride)]: 0.901; `CC(C[N+](C)(C)C)OC(N)=O` (stereo not drawn) [Bethanechol chloride]: 1.09.
In turn, `CCOC(=O)C(C)(C)Oc1ccc(Cl)cc1` [Clofibrate] displayed a relative cell viability of 0.996.
Same read-out and setting: with `O=C(O)COCCN1CCN(C(c2ccccc2)c2ccc(Cl)cc2)CC1` (stereo not drawn) [Cetirizine] the figure was 1.01; with `CCCN[C@H]1CCc2nc(N)sc2C1` [Pramipexole], 1.28; with `O=c1cc(-c2ccc(O)cc2)oc2cc(O)cc(O)c12` [Apigenin], 1.11.
Same read-out and setting: next, `O=C(c1cc(Cc2n[nH]c(=O)c3ccccc23)ccc1F)N1CCN(C(=O)C2CC2)CC1`: 1.09; `CN(C)CCC(c1ccc(Cl)cc1)c1ccccn1` (stereo not drawn) [Chlorpheniramine Maleate]: 1.12.
As for `Cc1onc(-c2ccccc2)c1C(=O)N[C@@H]1C(=O)N2[C@@H]1SC(C)(C)[C@@H]2C(=O)O` [Oxacillin sodium monohydrate], the relative cell viability was found to be 0.988.
As to `COC(=O)[C@@H]1CC2=CC(=O)CC[C@]2(C)[C@@]23O[C@@H]2C[C@@]2(C)[C@@H](CC[C@@]24CCC(=O)O4)[C@H]13` [Epleremone], the relative cell viability was 1.25.
Still for that read-out and setting: next, `NC(N)=O`: 1.01; `O=c1ccc2cc(O)c(O)cc2o1` [6,7-Dihydroxycoumarin]: 1.02.
The compound `C/C=C1\[C@H]2C=C(C)C[C@]1(N)c1ccc(=O)[nH]c1C2` [(-)-Huperzine A] registered a relative cell viability of 1.14.
Still for that read-out and setting: with `CCCCOc1cc(C(=O)NCCN(CC)CC)c2ccccc2n1` [Dibucaine] the figure was 1.04; with `CCCCc1nc(Cl)c(CO)n1Cc1ccc(-c2ccccc2-c2nnn[nH]2)cc1` [Losartan], 1.32.

For the next assay, the system named is HeLa VPS33A R498W KI + HA-SDC1-FLAG. Put plainly: relative GAG core protein HA-SDC1 amount per cell number vs DMSO (fraction of DMSO); HeLa model of a glycosaminoglycan (GAG) storage disease; KI is knock-in and KO knock-out; SDC1 is syndecan 1; higher = more SDC1 (GAG core protein). The following applies: 50 µM; 24 h.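 Note: HA-SDC1 level read out by In-Cell Western staining with an anti-HA antibody against the N-terminal tag, screening FDA-approved library drugs.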
For `Nc1[nH]cnc2ncnc1-2` [Adenine], the “relative GAG core protein HA-SDC1 amount per cell number” value was inactive: 1.21.
`Nc1ccc(S(=O)(=O)Nc2nccs2)cc1` [Sulfathiazole]: the “relative GAG core protein HA-SDC1 amount per cell number” value was inactive: 0.799.
The same measure, in the same setting: with `OC[C@H]1O[C@@H](OCCc2ccc(O)cc2)[C@H](O)[C@@H](O)[C@@H]1O` [Salidroside] the figure was inactive: 0.98; with `Cc1nc(=O)c2cc(CN(C)c3ccc(C(=O)N[C@@H](CCC(=O)O)C(=O)O)s3)ccc2[nH]1` [Raltitrexed], inactive: 1.07; with `CN1CCN2c3ncccc3Cc3ccccc3C2C1` (stereo not drawn) [Mirtazapine], inactive: 0.872.
Regarding `CC1(C)S[C@@H]2[C@H](NC(=O)[C@H](NC(=O)N3CCN(S(C)(=O)=O)C3=O)c3ccccc3)C(=O)N2[C@H]1C(=O)O` [Mezlocillin Sodium], the “relative GAG core protein HA-SDC1 amount per cell number” value was inactive: 0.929.
For `Cc1nnc(NS(=O)(=O)c2ccc(N)cc2)s1` [Sulfamethizole], the “relative GAG core protein HA-SDC1 amount per cell number” value is inactive: 0.763.
Still for that read-out and setting: next, `CC(=O)OCC(=O)NCCCOc1cccc(CN2CCCCC2)c1` [Roxatidine Acetate HCl]: inactive: 1.24; `Cc1cn([C@H]2C=C[C@@H](CO)O2)c(=O)[nH]c1=O` [Stavudine (d4T)]: inactive: 0.931.
On to `COc1ccc(C(Cl)=C(c2ccc(OC)cc2)c2ccc(OC)cc2)cc1` [Chlorotrianisene], for which the “relative GAG core protein HA-SDC1 amount per cell number” value was inactive: 0.97.
Same read-out and setting: next, `CCCCNc1ccc(C(=O)OCCN(C)C)cc1` [Tetracaine HCl]: inactive: 1.03.
Still for that read-out and setting: with `Cc1cc2c(s1)Nc1ccccc1N=C2N1CCN(C)CC1` [Olanzapine] the figure was inactive: 0.903; with `C[C@@H]1O[C@@H](O[C@@H]2[C@@H](O)[C@H](OCCc3ccc(O)c(O)c3)O[C@H](CO[C@@H]3O[C@H](CO)[C@@H](O)[C@H](O)[C@H]3O)[C@H]2OC(=O)/C=C/c2ccc(O)c(O)c2)[C@H](O)[C@H](O)[C@H]1O` [Echinacoside], inactive: 0.682.
Still for that read-out and setting: next, `C1N2CN3CN1CN(C2)C3` [Methenamine]: inactive: 0.901; `CC(C)(C)c1ccc(C(=O)CCCN2CCC(OC(c3ccccc3)c3ccccc3)CC2)cc1` [Ebastine]: inactive: 0.735.
With `O=C(O)/C=C/c1ccc(Cn2ccnc2)cc1` [Ozagrel], the “relative GAG core protein HA-SDC1 amount per cell number” value was inactive: 1.07.
The same measure, in the same setting: next, `C[N+](C)(C)CCOP(=O)(O)OP(=O)([O-])OC[C@H]1O[C@@H](n2ccc(N)nc2=O)[C@H](O)[C@@H]1O` [Citicoline (sodium salt)]: inactive: 1.04; `NC[C@H]1CC[C@H](C(=O)O)CC1` [Tranexamic Acid]: inactive: 0.95; `COc1ccc2cccc(CCNC(C)=O)c2c1` [Agomelatine]: inactive: 0.808.
For `CC(=O)CCCCn1c(=O)c2c(ncn2C)n(C)c1=O` [Pentoxifylline], the “relative GAG core protein HA-SDC1 amount per cell number” value was inactive: 0.987.
Same read-out and setting: with `O=C([O-])[O-].[Li+].[Li+]` [Lithium carbonate] the figure was inactive: 1.04; with `N#C/C(=C1/SC[C@@H](c2ccc(Cl)cc2Cl)S1)n1ccnc1` [Luliconazole], inactive: 1.31.
On to `COc1cc([C@@H]2c3cc4c(cc3[C@@H](O[C@@H]3O[C@@H]5CO[C@@H](c6cccs6)O[C@H]5[C@H](O)[C@H]3O)[C@H]3COC(=O)[C@H]23)OCO4)cc(OC)c1O` [Teniposide], for which the “relative GAG core protein HA-SDC1 amount per cell number” value is active: 0.453.
Still for that read-out and setting: with `O=c1c(-n2ccnn2)c[nH]n1-c1cc(N2CCOCC2)ncn1` [Molidustat (BAY85-3934)] the figure was inactive: 0.757.
Still for that read-out and setting: next, `Nc1nc2ccc(OC(F)(F)F)cc2s1` [Riluzole (hydrochloride)]: active: 0.343; `CC(C[N+](C)(C)C)OC(N)=O` (stereo not drawn) [Bethanechol chloride]: inactive: 1.29; `CCOC(=O)C(C)(C)Oc1ccc(Cl)cc1` [Clofibrate]: inactive: 0.863.
On the same count and under the same terms, with `O=C(O)COCCN1CCN(C(c2ccccc2)c2ccc(Cl)cc2)CC1` (stereo not drawn) [Cetirizine] the figure was inactive: 1.1.
`CCCN[C@H]1CCc2nc(N)sc2C1` [Pramipexole]: the “relative GAG core protein HA-SDC1 amount per cell number” value was inactive: 1.2.
On the same count and under the same terms, with `O=c1cc(-c2ccc(O)cc2)oc2cc(O)cc(O)c12` [Apigenin] the figure was active: 0.49; with `O=C(c1cc(Cc2n[nH]c(=O)c3ccccc23)ccc1F)N1CCN(C(=O)C2CC2)CC1`, inactive: 0.943; with `CN(C)CCC(c1ccc(Cl)cc1)c1ccccn1` (stereo not drawn) [Chlorpheniramine Maleate], inactive: 1.34.
On the same count and under the same terms, with `Cc1onc(-c2ccccc2)c1C(=O)N[C@@H]1C(=O)N2[C@@H]1SC(C)(C)[C@@H]2C(=O)O` [Oxacillin sodium monohydrate] the figure was inactive: 0.99.
Still for that read-out and setting: with `COC(=O)[C@@H]1CC2=CC(=O)CC[C@]2(C)[C@@]23O[C@@H]2C[C@@]2(C)[C@@H](CC[C@@]24CCC(=O)O4)[C@H]13` [Epleremone] the figure was inactive: 0.938.
Take `NC(N)=O`: the “relative GAG core protein HA-SDC1 amount per cell number” value is inactive: 0.854.
The same measure, in the same setting: with `O=c1ccc2cc(O)c(O)cc2o1` [6,7-Dihydroxycoumarin] the figure was inactive: 0.981.
Same read-out and setting: with `C/C=C1\[C@H]2C=C(C)C[C@]1(N)c1ccc(=O)[nH]c1C2` [(-)-Huperzine A] the figure was inactive: 1.1.
Same read-out and setting: next, `CCCCOc1cc(C(=O)NCCN(CC)CC)c2ccccc2n1` [Dibucaine]: inactive: 0.598; `CCCCc1nc(Cl)c(CO)n1Cc1ccc(-c2ccccc2-c2nnn[nH]2)cc1` [Losartan]: inactive: 1.13.
